Measurements: PubChem BioAssay AID485294 (National Center for Advancing Translational Sciences (NCATS), 2010)
About 150 (0.041%) of roughly 370,000 compounds were called active. This list was built around the results that the source calls inconclusive (neither active nor inactive); the mix of calls is not that of the screen. The call rests on the fitted dose curve; in most records, active means well fitted inhibition curve with a large enough effect; inconclusive means small, poorly fitted or top-dose-only effect; inactive means flat fitted curve, though single readings scatter. Potencies of inconclusive entries are left out as doubtful fits.

What follows are compounds tested against Beta-lactamase (Escherichia coli (strain K12)) (UniProt P00811) (assay: qHTS Inhibitors of AmpC Beta-Lactamase (assay with detergent)). Conditions: AmpC hydrolysis of nitrocefin, absorbance 480 nm, 0.01% Triton; series mostly up to 114 µM.
UniProt P00811, sequence (P00811 whole entry, looked up): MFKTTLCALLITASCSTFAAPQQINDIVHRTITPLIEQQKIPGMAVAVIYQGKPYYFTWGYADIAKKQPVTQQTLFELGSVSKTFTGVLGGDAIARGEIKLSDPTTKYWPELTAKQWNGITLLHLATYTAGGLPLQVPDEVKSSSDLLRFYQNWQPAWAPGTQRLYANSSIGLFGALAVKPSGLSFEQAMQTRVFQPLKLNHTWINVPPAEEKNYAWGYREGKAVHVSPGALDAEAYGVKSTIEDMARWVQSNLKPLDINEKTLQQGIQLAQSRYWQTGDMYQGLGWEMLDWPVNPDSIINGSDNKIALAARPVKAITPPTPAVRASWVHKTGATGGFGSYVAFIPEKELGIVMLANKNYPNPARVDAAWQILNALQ
Procedure, shortened: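 20 mM phosphate pH 7.0 + 0.01% (detergent screen) or 0.0001% Triton X-100; 5.3 nM AmpC reagent; cpd preinc 15 min RT; nitrocefin (800 uM stock) to start; A480 q20 s × 4 min; Activity was normalised to no-enzyme and no-compound control wells.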
Further: nearly all actives have a fitted effect of over 25% in size.
Potency means the concentration at half of the fitted maximal effect; tags describe the fitted curve by direction and shape.

Compound	Potency
S=C(Nc1ccc(Oc2ccccc2)cc1)NC1CCCCC1	inactive
COCCN(Cc1nc2ccccc2c(=O)[nH]1)C(=O)COc1ccccc1-c1ccccc1	inconclusive [inhibitor, single point]
COc1ccc(N2CC(C(=O)Nc3nnc(SCC(=O)N4CCOCC4)s3)CC2=O)cc1 (stereo not given)	inconclusive [inhibitor, full curve, poor fit]
COc1cccc2oc3cc(C#CC4(O)CCCCC4)ccc3c(=O)c12	inconclusive [inhibitor, full curve, poor fit]
CCOC(=O)c1nnn(-c2nonc2N)c1-c1cccc2ccccc12	inconclusive [inhibitor, full curve]
COc1ccc(CNC(=O)Cc2c(C)c3ccc(O)cc3oc2=O)cc1	inactive
O=C(c1ccco1)c1nc2c(n1O)CCCCC2	inconclusive [inhibitor, partial curve, poor fit]
CCCCN(C)S(=O)(=O)c1ccc(C(=O)Nc2nnc(CSC)o2)cc1	inconclusive [inhibitor, full curve, poor fit]
O=C1CCC(C(=O)N(Cc2ccco2)C2(C(=O)NC3CCCC3)CCCCC2)N1 (stereo not given)	inconclusive [inhibitor, full curve, poor fit]
Cc1ccccc1NS(=O)(=O)c1cc(C(=O)NCCC2=CCCCC2)ccc1C	inconclusive [inhibitor, full curve, poor fit]
CCOC(=O)c1c(C)oc2cc(Br)c(O)c(Br)c12	inconclusive [inhibitor, full curve]
Cc1cnc(C(=O)NCc2ccc(F)cc2)cn1	inconclusive [inhibitor, partial curve]
O=C(c1ccc(C(F)(F)F)cc1)C1CCCN(C(=O)CN2C(=O)CSC2=O)C1 (stereo not given)	inactive
Cc1ccc(NC(=O)CSc2nnc(-c3ccccc3C)o2)cc1C	inactive
Cc1c(NC(=S)N/N=C/c2ccc([N+](=O)[O-])cc2O)c(=O)n(-c2ccccc2)n1C	inactive
CC1=C(C(=O)Nc2ccc(C)cc2C)C(c2ccc(C(C)C)cc2)n2nc(C(F)(F)F)nc2N1 (stereo not given)	inactive
O=C(NC12CC3CC(CC(C3)C1)C2)c1cc2nc(-c3ccco3)cc(C(F)(F)F)n2n1	inconclusive [inhibitor, full curve, poor fit]
CCCCCCc1c(O)nc(SCC(=O)O)[nH]c1=O	inconclusive [inhibitor, full curve, poor fit]
FC(F)Sc1ccc(NC(=S)NCC2CCCCC2)cc1	inconclusive [inhibitor, partial curve, poor fit]
CNCc1ccccc1Sc1cccc(O)c1	inactive
CC1(C)CC(NC(=O)c2cccc(S(=O)(=O)N(Cc3ccccc3)c3ccccc3)c2)CC(C)(C)N1	inconclusive [inhibitor, partial curve]
O=C(NCc1ccccc1Cl)C1CCCN(c2nc3ccccc3n3cccc23)C1 (stereo not given)	inactive
CC1CCCCC1NC(=S)Nc1ccc(Cl)cc1Cl (stereo not given)	inactive

Compound	Potency
CCOc1ccc2c(c1)OC(c1ccccc1)(C(F)(F)F)NC2=O (stereo not given)	inconclusive [inhibitor, single point]
CCC(=O)OC1CC(C)N(C(=O)c2ccccc2)c2ccc(C)cc21 (stereo not given)	inconclusive [inhibitor, full curve, poor fit]
Cc1cc(C)n2nc[n+](C)c2n1	inconclusive [inhibitor, single point]
O=C(CCl)N1CCN2C(=O)c3ccccc3C12c1ccc(Cl)cc1 (stereo not given)	inactive
CC(C)CCOP(=O)(c1ccccc1)c1ccccc1	inactive
COCc1c(C(=O)N/N=C(/C)c2cccs2)nnn1-c1nonc1N	inconclusive [inhibitor, full curve, poor fit]
CCOc1ccc(CN2CCN(CCCc3ccccc3)CC2CCO)cc1 (stereo not given)	inconclusive [inhibitor, full curve, poor fit]
COc1ccc(C(OC(=O)c2ccco2)C(=O)NC2CCCC2)cc1OC (stereo not given)	inconclusive [inhibitor, full curve]
O=C(NC1CC1)C1CCC(=O)N1C1CCCC1 (stereo not given)	inconclusive [inhibitor, partial curve, poor fit]
N#CCSc1nc(-c2ccccc2)c2cc(Cl)ccc2n1	inconclusive [inhibitor, full curve, poor fit]
Cn1cccc1C(=S)N1CCOCC1	inconclusive [inhibitor, partial curve]
COC(=O)CC1C(=O)NCCN1C(=O)c1ccc2oc(C(C)C)nc2c1 (stereo not given)	inactive
Fc1cccc(CN2CCC(Cc3ccccc3)CC2)c1	inconclusive [inhibitor, full curve, poor fit]
CCOC(=O)c1sc(NC(=O)CSc2nncn2C)nc1C	inconclusive [inhibitor, partial curve]
COC(=O)CCN(C(=O)c1cc([N+](=O)[O-])cc([N+](=O)[O-])c1)c1ccccn1	inconclusive [inhibitor, full curve, poor fit]
CCn1c(CNC(=O)c2ccccc2F)nnc1SCCOc1ccccc1	inconclusive [inhibitor, full curve]
O=C(NCCC(=O)N1CCCCCCC1)c1ccc(Br)cc1	inconclusive [inhibitor, full curve]
Cc1ccccc1NC(=O)C1(C)Cc2ccccc2C(=O)O1 (stereo not given)	inactive
COc1ccc(-c2cc(-c3nnc(COC(=O)CC4CCCC4)o3)c3ccccc3n2)cc1OC	inconclusive [inhibitor, full curve, poor fit]
O=C(Nc1cccc(Cl)c1)Nc1sccc1-c1nc2ccccc2s1	inactive
O=c1[nH]c(=S)[nH]c2[nH]c(=S)[nH]c12	inconclusive [inhibitor, full curve, poor fit]
Cc1cccc(N2C(S)=C(C#N)C(=O)NC23CCCCC3)c1	inactive
